SMILES strings stand for the structures. The list shows a part of the results.

This assay relates to T1, C. trachomatis L2/434/Bu expressing GFP (CTL2-GFP).
T1 construct: L2/434/Bu GFP intracellular growth in HeLa cells
Set-up: species or system HeLa; C. trachomatis total inclusion area by high-content imaging, normalised to DMSO. As to conditions: total inclusion area; 28.5 h, 10 µM; inhibitor. The method in brief: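 Imaging read-out: GFP inclusions and Hoechst nuclei captured by high-content imaging after fixation. Inclusion area/number = chlamydial growth; nuclei count = host cell viability. MIC calculated per earlier method.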
As for `O=C(NCc1nc2ccccc2[nH]1)c1ccc2[nH]ccc2c1` [CBK149079], the “% of control remaining” value stood at 88.8498. Take `O=C(O)COc1ccc(N2C(=O)c3ccc(-c4nc5ccccc5c(=O)o4)cc3C2=O)cc1` [CBK265659]: the “% of control remaining” value worked out at 92.855. As to `CCOC(=O)Cn1nc(C)n2c(cc3sc(C)cc32)c1=O` [CBK284096], the “% of control remaining” value was determined as 80.4859. The same measure for `C=CCn1c2ccccc2c2nnc(SCC(=O)N3c4ccccc4Sc4ccccc43)nc21` [CBK263237]: 52.8976. For `O=C(c1cccnc1)N1C[C@@H]2OCC(=O)N(Cc3ccc(F)cc3)[C@@H]2C1` [CBK289691], the “% of control remaining” value amounted to 123.969. As to `O=C(CN1C(=O)c2ccccc2C1=O)Nc1sc2c(c1C(=O)NCC1CCCO1)CCC2` (centres unmarked) [CBK265583], the “% of control remaining” value amounted to 91.6338. As for `O=C(O)C1CCCN(C(=O)NCC2COc3ccccc3O2)C1` (centres unmarked) [CBK161342], the “% of control remaining” value was determined as 93.7078. On to `O=C(Cc1ccc(F)cc1)N1CCC(O)(c2ccccn2)CC1` [CBK283588], for which the “% of control remaining” value was 88.5198. `CCN(CCO)C(=O)C(C)Oc1cc(C)ccc1Cl` (centres unmarked) [CBK306019]: the “% of control remaining” value is listed as 13.9106.

As to `CC(CN(C)C(=O)CC1CCN(C(=O)CC2CCCCC2)CC1)c1ccccc1` (centres unmarked) [CBK286268], the “% of control remaining” value is 109.645. As to `Cn1nccc1-c1cc(C(=O)NC2(C)CCC2)c2ccccc2n1` [CBK281605], the “% of control remaining” value worked out at 118.051. The same measure for `COc1ccc(C(=O)Nc2nnc(-c3ccccc3OC)o2)cc1OC` [CBK287589]: 93.7638; for `COc1ccc([C@@]23CCC(CC(=O)O)C[C@@H]2N(C)CC3)cc1OC` (some centres unmarked) [CBK045765A]: 89.9198; for `COc1ccc(-c2cnc(N)c(NCc3cccnc3)n2)c(OC)c1OC` [CBK063540]: 125.694.

`O=S(=O)(c1ccc(Br)cc1)N1CCCCC1CO` (centres unmarked) [CBK051127]: the “% of control remaining” value worked out at 79.2803.

Turning to `O=C(NC[C@H]1O[C@@H](CC(=O)N2CCCC2)[C@H](O)[C@@H]1O)c1cccc(F)c1` [CBK288908], the “% of control remaining” value is listed as 109.022. With `O=S(=O)(NCc1nc2ccccc2[nH]1)c1ccccc1` [CBK269460] the figure was 102.308; with `Cc1ccc(C(=O)O)cc1NC(=S)NC1CC1` [CBK288397], 82.8899. With `C=CCNC(=O)C[C@@H]1CCN(C(=O)c2ccnc(Cl)c2)C[C@@H]1CC` [CBK289136], the “% of control remaining” value came out at 74.4545. Regarding `Cc1nn(C)c(C)c1NC(=O)c1ccc(S(=O)(=O)N(C)C)cc1` [CBK266059], the “% of control remaining” value was 95.8437. With `C/C(=N/OCC(=O)Nc1oc(-c2ccccc2)c(-c2ccccc2)c1C#N)c1cccs1` [CBK262932] the figure was 80.2675; with `Oc1cc2nnnn2nc1-c1ccccc1` [CBK019550], 54.7511.

For the compound `COc1ccc2[nH]c3c(c2c1)CCN(C(C)=O)C31CCN(CCOc2ccccc2)C1` (centres unmarked) [CBK039626], the “% of control remaining” value came out at 78.625. With `CSc1ncc(CNC(=O)C2CCOc3ccccc3C2)n1C` (centres unmarked) [CBK307611] the figure was 91.4686; with `CCN1C(=O)COC[C@@H]1[C@H](O)c1ccc(NC(=O)Cc2ccc(OC)cc2)cc1` [CBK289676], 115.712. The same measure for `CN(C)S(=O)(=O)c1ccc(Cl)c(C(=O)Nc2cccc(C(=O)O)c2)c1` [CBK265727]: 122.111; for `c1ccc(CCN2CCN(CCC(c3ccccc3)c3ccccc3)CC2)cc1` [CBK126432]: 78.6388; for `N#Cc1ccccc1-c1ccc(CSc2cccc(F)c2)cc1` [CBK002920]: 79.9048. With `c1cc(CCCOc2cncc(N3CCCC3)n2)ccn1` [CBK115760] the figure was 113.498; with `O=C(NCc1nnc(-c2cccs2)o1)C1(c2ccc(F)cc2)CC1` [CBK284638], 99.3997; with `O=C(O)CCC(=O)Nc1ccc(Br)cc1C(=O)c1ccc(Cl)cc1` [CBK262601], 93.4715. As for `COc1ccc(C(C)C)cc1-c1cnc(N)c(NCc2ccncc2)n1` [CBK063695], the “% of control remaining” value came out at 133.275. The same measure for `CCOC(=O)c1cnc(N2CCOCC2)nc1NCCc1c[nH]c2ccccc12` [CBK093605]: 100.337. The same measure for `O=S(=O)(c1ccc(Cl)cc1)N1CCN(S(=O)(=O)N2CCOCC2)CC1` [CBK266878]: 105.085. With `CC(=O)c1ccc(-c2nc(-c3occc3C=O)cnc2N)cc1` [CBK064081] the figure was 106.005. Regarding `CCn1ncc(CN(CCN(C)C)Cc2cccs2)c1C` [CBK282958], the “% of control remaining” value is reported as 88.7983. With `O=C(c1ccc(F)cc1)N1C2CCC1CC(O)(c1ccccc1F)C2` (centres unmarked) [CBK121719] the figure was 86.2013; with `CC(C)Oc1cccc2cccc(C(O)CN(C)C)c12` (centres unmarked) [CBK009892], 108.653. The same measure for `O=C(CN1C(=O)N2CCCN=C2c2ccc(Cl)cc21)NC1CC1` [CBK284388]: 86.4539; for `CC(=O)c1ccc(NC(=O)CSc2ncccc2C(=O)O)cc1` [CBK299798]: 109.343. The same measure for `COc1ccc(NC(=O)CSc2nc(N)cc(O)n2)c([N+](=O)[O-])c1` [CBK267904]: 72.9155; for `COc1cc(C(CC(=O)O)C(=O)O)c([N+](=O)[O-])cc1OC` (centres unmarked) [CBK268541]: 107.811. On to `O=C(Nc1ccc(I)cc1)c1ccc(CN2CCc3ccccc3C2)cc1` [CBK262672], for which the “% of control remaining” value is listed as 111.541. `O=C(O)CC(NC(=O)c1ccco1)c1ccc(F)cc1` (centres unmarked) [CBK057988]: the “% of control remaining” value is recorded as 97.4106. Take `CCCc1cc(C(=O)N2CCCN(Cc3cnn(CC)c3)CC2)[nH]n1` [CBK305293]: the “% of control remaining” value was 96.8359. With `Cc1cc(I)ccc1NCC(=O)NN` [CBK261738] the figure was 98.1744; with `O=S(=O)(c1ccc(OC(F)(F)F)cc1)N1CCCCC1CO` (centres unmarked) [CBK051527], 89.5807; with `COCCCN1C(=O)C(O)=C(C(=O)c2ccc(Cl)cc2)C1c1cccc(O)c1` (centres unmarked) [CBK264892], 113.191. With `CCn1cc(CN2CCCN(C(=O)c3cc(C4CC4)on3)CC2)cn1` [CBK305401] the figure was 52.2599.

Regarding `Cc1cc(NS(=O)(=O)c2cc(OCC(N)=O)c(C)cc2Cl)no1` [CBK266456], the “% of control remaining” value is recorded as 119.685. Take `CCN1CCN(c2ccc(NC(=O)Cc3cn4ccsc4n3)cc2)CC1` [CBK305892]: the “% of control remaining” value turned out to be 38.3956. With `CC(=O)Nc1ccccc1NC(=O)c1ccccc1CCc1ccccc1` [CBK268621] the figure was 104.672. As to `CC(C)N1CCOC[C@H]1c1nc(-c2ccc(S(C)(=O)=O)cc2)c[nH]1` [CBK289301], the “% of control remaining” value came out at 91.3453. With `Cn1nccc1NS(=O)(=O)c1cc(C(F)(F)F)cc(C(F)(F)F)c1` [CBK062090] the figure was 97.8084; with `Cc1nc(C2CCCN(C(=O)C3CCCO3)C2)c2sccn12` (centres unmarked) [CBK282241], 93.509; with `CN(Cc1nc2c(s1)CCCC2)C(=O)COc1ncnc2ccccc12` [CBK307151], 37.0216. Regarding `COc1cc(/N=C(\N)Nc2nc(=O)cc(CSc3ccc(C)cc3)[nH]2)cc(OC)c1` [CBK265532], the “% of control remaining” value was determined as 109.835.

As to `O=S(=O)(NC1c2cccc3cccc(c23)C1N1CCNCC1)c1ccc(Cl)cc1` (centres unmarked) [CBK264082], the “% of control remaining” value turned out to be 92.0612. Take `CN(C)C(=O)CN1C(=O)N2CCCN=C2c2ccc(Cl)cc21` [CBK284392]: the “% of control remaining” value is recorded as 75.642.

For the compound `COc1cccc(Oc2nccnc2-c2cnn(C)c2)c1` [CBK107071], the “% of control remaining” value amounted to 56.773. In the case of `O=C(Nc1ccc(F)cc1)Nc1cccnc1Cl` [CBK058509], the “% of control remaining” value was determined as 75.5862. With `O=C(O)CC(C(=O)Nc1ccc(Cl)cc1)C1CCCO1` (centres unmarked) [CBK264583] the figure was 117.011; with `CCC(=O)N[C@H]1CC[C@@]2(Cc3ccc(OC)cc3)CCN(C)[C@H]2C1` [CBK024126], 95.1452; with `CC(C)(C)C(=O)NC(c1nccs1)C1CCN(C(=O)C2CC2)CC1` (centres unmarked) [CBK284678], 82.7133. As to `CSc1cccc(CN(C)C(=O)c2cc(C#N)c(=O)[nH]c2C)c1` [CBK306839], the “% of control remaining” value was 78.5135. On to `COc1ccc([C@@]23CC[C@@H](NC(=O)Nc4cc(C)ccc4F)C[C@@H]2N(C)CC3)cc1OC` [CBK036509T], for which the “% of control remaining” value amounted to 76.6958.

Take `Cc1ccc(-c2cc(C(=O)N3CCOCC3)c3cc(Br)ccc3n2)cc1` [CBK066901]: the “% of control remaining” value came to 73.8909. The same measure for `COc1ccc(N2C(=O)CSC23C(=O)N(Cc2ccc(Cl)cc2)c2ccccc23)cc1` (centres unmarked) [CBK092396]: 78.7901; for `Cc1nc(-c2ccco2)nc2sc(C(=O)N(C)CC3COc4ccccc4O3)c(C)c12` (centres unmarked) [CBK295347]: 122.655; for `O=C(C1COc2ccccc2O1)N(Cc1cccnc1)c1nc2c(F)cccc2s1` (centres unmarked) [CBK294421]: 100.947. For `Cc1cnn(CC(=O)NC(C)c2cc3cc(Cl)ccc3o2)c1` (centres unmarked) [CBK281447], the “% of control remaining” value turned out to be 108.876.

Turning to `CC(NC(=O)CCc1cscn1)c1nc(-c2ccncc2)cs1` (centres unmarked) [CBK305260], the “% of control remaining” value is 70.4573. Consider `O=C1NC2(CCN(C(=O)CCc3ccc(-c4ccccc4)o3)CC2)Nc2ccccc21` [CBK286316], for which the “% of control remaining” value is 68.5235. With `CC(CN1CCOCC1)C(=O)N1CC(C(=O)N2CCN(c3ccccc3)CC2)C1` (centres unmarked) [CBK286047] the figure was 106.96; with `CC(C)C(Nc1nc2ncn(Cc3ccccc3)c2c(=O)[nH]1)C(=O)O` (centres unmarked) [CBK261685], 97.4518; with `COc1cncc(-c2cncc(N[C@H](C)c3ccccc3)n2)c1` [CBK065537], 96.9966.

Consider `CCN1CC2(CCN(Cc3nc4ccccc4s3)CC2)c2ccccc21` [CBK136993], for which the “% of control remaining” value was determined as 71.5392. Turning to `Cc1cc(COC(=O)N2CCCC(F)(F)C2)cc(C)n1` [CBK200151], the “% of control remaining” value stood at 115.868. As for `CCN(CC)CC(=O)Nc1ccc(Br)cc1C(=O)c1ccccc1` [CBK262983], the “% of control remaining” value came out at 96.179. The same measure for `c1ccc(CNCc2nc(-c3ccccc3)no2)cc1` [CBK024404]: 100.405.

The values above are taken from publication PMC12040169 (PLOS Biology, 2025).
